Measurements from the BET-seq Pho4 binding data (Le et al. 2018).
The other results are listed elsewhere or left out. These are noisy estimates, calculated here from bound and input reads.

target: T1, Pho4 (S. cerevisiae) (UniProt P07270); assay: relative binding free energy (BET-seq); higher = weaker binding; settings: reference: library average
T1 sequence: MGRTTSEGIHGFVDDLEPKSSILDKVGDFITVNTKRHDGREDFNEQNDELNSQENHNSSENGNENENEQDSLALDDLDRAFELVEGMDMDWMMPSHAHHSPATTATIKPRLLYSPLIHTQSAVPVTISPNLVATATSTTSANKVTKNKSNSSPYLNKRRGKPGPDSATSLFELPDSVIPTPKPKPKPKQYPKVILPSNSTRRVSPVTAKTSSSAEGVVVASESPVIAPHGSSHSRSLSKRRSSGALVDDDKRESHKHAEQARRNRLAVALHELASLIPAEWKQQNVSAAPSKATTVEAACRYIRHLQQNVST

Sequence	relative binding free energy
GCAGGCACGTGGTGGA	-0.13 kcal/mol
TGGATCACGTGACTGG	0.28 kcal/mol
TGGAGCACGTGGGGAT	-0.15 kcal/mol
AGTTTCACGTGGGGTA	0.08 kcal/mol
TGGCACACGTGGCGTG	-0.08 kcal/mol
TCATGCACGTGGGCTT	-0.17 kcal/mol
GATTTCACGTGGGATT	0.34 kcal/mol
GTGGTCACGTGGAATC	0.25 kcal/mol
TGAGTCACGTGGGAAA	-0.02 kcal/mol
AGTGACACGTGCAGGA	0.06 kcal/mol
GAGTTCACGTGTAGTC	0.48 kcal/mol
TAATGCACGTGTTATT	0.04 kcal/mol
ACAGTCACGTGTTTGG	-0.13 kcal/mol
CAGATCACGTGTTGGT	0.11 kcal/mol
ATGAGCACGTGTTTGG	-0.06 kcal/mol
AGCATCACGTGTTATG	0.18 kcal/mol
GGTGTCACGTGGGACT	0.05 kcal/mol
TGCAGCACGTGTGTCG	0 kcal/mol
TGGGACACGTGTAGGA	0.1 kcal/mol
TCATTCACGTGGGGTC	-0.01 kcal/mol
TTGAACACGTGTTAAG	0.08 kcal/mol
ATATGCACGTGGTGCA	-0.1 kcal/mol
AAATTCACGTGGATAT	0.33 kcal/mol
ACGTGCACGTGCGGGG	-0.11 kcal/mol
TGGGACACGTGCTATG	-0.06 kcal/mol
TGAAGCACGTGGATTT	0.06 kcal/mol

Sequence	relative binding free energy
AGATACACGTGGGATG	-0.03 kcal/mol
TGTATCACGTGGATAG	0.16 kcal/mol
ATTTTCACGTGTTTCT	0.22 kcal/mol
AGTATCACGTGTGGAT	0.19 kcal/mol
GTAATCACGTGTCGTG	0.17 kcal/mol
TACTGCACGTGATGTT	0.04 kcal/mol
TATGCCACGTGAGGGA	0.1 kcal/mol
TATTACACGTGTCGTT	0.07 kcal/mol
AGAAGCACGTGAGAGG	0.13 kcal/mol
AGGGTCACGTGGTGTC	0.07 kcal/mol
ATAGACACGTGAAGGT	0.2 kcal/mol
TTGTACACGTGATGCA	0.07 kcal/mol
TCGTTCACGTGTATCT	0.36 kcal/mol
TTGGACACGTGTTGAA	0.11 kcal/mol
GAGGTCACGTGTACGT	0.2 kcal/mol
GTGTGCACGTGATTAT	0.13 kcal/mol
ATTAACACGTGGATGT	-0.1 kcal/mol
AGCATCACGTGGTTGT	0.08 kcal/mol
GTTAACACGTGAATTT	0.31 kcal/mol
TGTGGCACGTGGATCG	-0.17 kcal/mol
GAGGCCACGTGTCGGT	0.1 kcal/mol
GAAGTCACGTGCTTTG	0.07 kcal/mol
TACATCACGTGGGTGT	-0.03 kcal/mol
TGTAACACGTGGCTGT	-0.12 kcal/mol
ACAGGCACGTGAGGGT	0.12 kcal/mol
TGGGGCACGTGTTGGA	0 kcal/mol

Sequence	relative binding free energy
TTGAGCACGTGGCTTT	-0.16 kcal/mol
GGGGACACGTGGAATG	0.02 kcal/mol
GCGCGCACGTGAGGTG	0.12 kcal/mol
GGGTTCACGTGGCAAA	0.34 kcal/mol
GAGAGCACGTGGTGGC	-0.12 kcal/mol
TGCGACACGTGTAGTT	0.05 kcal/mol
TCGTACACGTGTGATG	0.18 kcal/mol
GGTAGCACGTGATTGG	0.07 kcal/mol
GTTTGCACGTGTCCGA	0.11 kcal/mol
TTGGACACGTGTAATG	0.14 kcal/mol
GGGGGCACGTGGTCAT	-0.22 kcal/mol
ATTGGCACGTGTTTTT	-0.17 kcal/mol
AGGGACACGTGTGTCG	0 kcal/mol
ATTATCACGTGTTGAT	0.2 kcal/mol
ATGGGCACGTGGGGTC	-0.22 kcal/mol
TGTTGCACGTGTTTAC	-0.07 kcal/mol
CTTGGCACGTGGCGTA	-0.29 kcal/mol
CGGAGCACGTGATGTG	0.02 kcal/mol
ATGTACACGTGCAGGT	-0.05 kcal/mol
TGGATCACGTGTAGGT	0.19 kcal/mol
AATGGCACGTGGATAT	-0.07 kcal/mol
GTGTACACGTGATTTA	0.08 kcal/mol
GTTATCACGTGTGTCA	0.13 kcal/mol
ATGGGCACGTGGCTTG	-0.34 kcal/mol
TTTCTCACGTGGGCGT	0.14 kcal/mol
TTAGACACGTGAGAGG	0.19 kcal/mol

Sequence	relative binding free energy
TCCTTCACGTGGTTGG	0.13 kcal/mol
GATATCACGTGTCTTG	0.28 kcal/mol
GTCATCACGTGTAGGG	0.13 kcal/mol
AGGCACACGTGGTGTA	-0.03 kcal/mol
TTGTCCACGTGGTGTC	-0.04 kcal/mol
GGTGGCACGTGGCCGC	-0.11 kcal/mol
CGGTGCACGTGACATG	0.15 kcal/mol
AATAGCACGTGGTAGA	-0.15 kcal/mol
CTTTACACGTGTTATT	0.12 kcal/mol
TATTGCACGTGAAAAT	0.2 kcal/mol
TGTCCCACGTGTGATG	0.06 kcal/mol
AGTTCCACGTGGGTGA	-0.04 kcal/mol
CTGTGCACGTGCGTCG	0.04 kcal/mol
TATGGCACGTGCCGTA	0.01 kcal/mol
GCGTGCACGTGAAGAG	0.23 kcal/mol
TATGTCACGTGCAATG	0.15 kcal/mol
TTGGTCACGTGGCATT	0 kcal/mol
CGGCTCACGTGTGATG	0.42 kcal/mol
TGCTTCACGTGTCAGG	0.22 kcal/mol
CGGGCCACGTGTAGTT	-0.05 kcal/mol
TGACGCACGTGTTGGG	-0.04 kcal/mol
GGTTACACGTGTTACT	0.21 kcal/mol
AATATCACGTGGGCGT	-0.04 kcal/mol
AATTTCACGTGTTCGG	0.29 kcal/mol
GATGTCACGTGTTAAT	0.17 kcal/mol
GTTGACACGTGGTAGA	-0.05 kcal/mol

Sequence	relative binding free energy
GTCGTCACGTGGGAAT	0.17 kcal/mol
GGCGACACGTGAGTGG	0.29 kcal/mol
TTAGGCACGTGGTAGC	-0.15 kcal/mol
ACTGGCACGTGAGGGA	0.12 kcal/mol
CCTTTCACGTGAGTTT	0.37 kcal/mol
AATTACACGTGTAGGA	0.18 kcal/mol
GTAGTCACGTGTTGTC	0.16 kcal/mol
TTGTTCACGTGATTCT	0.34 kcal/mol
TTCAACACGTGGGTGT	-0.16 kcal/mol
TGTCGCACGTGGTGGT	-0.2 kcal/mol
GCGTGCACGTGACTGG	0.12 kcal/mol
GCCGGCACGTGTTGTG	-0.05 kcal/mol
GAGTTCACGTGTTATA	0.27 kcal/mol
AGTGTCACGTGGCTTG	0.02 kcal/mol
TATTTCACGTGATTGC	0.26 kcal/mol
TTACACACGTGGGTTT	-0.09 kcal/mol
GGGGACACGTGCTGCG	0.04 kcal/mol
GTGGACACGTGTGCTA	0.06 kcal/mol
GGTTTCACGTGAATGG	0.43 kcal/mol
AGGTGCACGTGTTCAA	-0.06 kcal/mol
AAGATCACGTGTGCTG	0.15 kcal/mol
GTCGGCACGTGTGTGG	0.06 kcal/mol
TGGTGCACGTGAGCAT	0.24 kcal/mol
TAGGTCACGTGCATGA	0.08 kcal/mol
CCAGTCACGTGGTGGG	-0.06 kcal/mol
TGCTGCACGTGCAGTG	-0.11 kcal/mol

Sequence	relative binding free energy
AACGGCACGTGGGTCT	-0.12 kcal/mol
CGGTGCACGTGTGGGG	0.08 kcal/mol
TAGATCACGTGTGGAG	0.18 kcal/mol
TAAGTCACGTGATACG	0.26 kcal/mol
CGTCACACGTGGGGAG	0 kcal/mol
GGCGACACGTGTCGGT	0.16 kcal/mol
GATGTCACGTGGATAA	0.18 kcal/mol
GTCTTCACGTGTGGAT	0.39 kcal/mol
GAAGTCACGTGTGGGA	0.16 kcal/mol
ATTGTCACGTGTGGAA	0.2 kcal/mol
TGGGTCACGTGCCTGG	0 kcal/mol
TGGAACACGTGAGGGT	0.22 kcal/mol
TGGGCCACGTGTAAGG	-0.07 kcal/mol
CAGGGCACGTGTTGTG	-0.17 kcal/mol
AGGGGCACGTGCGCGC	-0.25 kcal/mol
CAATTCACGTGGAGGT	0.25 kcal/mol
TTAGGCACGTGGTGGC	-0.12 kcal/mol
TTGAACACGTGGCTAG	-0.02 kcal/mol
GGGGACACGTGGATCG	0.01 kcal/mol
CTAGCCACGTGGGGTG	-0.28 kcal/mol
GTAGACACGTGGTTAG	-0.02 kcal/mol
GTAGCCACGTGTTTGT	0.08 kcal/mol
AGTGGCACGTGGCAGA	-0.15 kcal/mol
GAGTGCACGTGGTTGA	0.02 kcal/mol
GTCAGCACGTGCTGGG	0.08 kcal/mol
TAAATCACGTGCTTGG	0.1 kcal/mol

Sequence	relative binding free energy
GGTGACACGTGGTTTG	0.07 kcal/mol
TTGGGCACGTGCGTTC	-0.21 kcal/mol
GCTAGCACGTGTGAGG	0.05 kcal/mol
GGAGTCACGTGTATTT	0.23 kcal/mol
GAGTGCACGTGGGGGC	-0.01 kcal/mol
CAGTACACGTGGGAGG	0.01 kcal/mol
TGCGTCACGTGATTAG	0.31 kcal/mol
GCTGTCACGTGGGGAT	0.08 kcal/mol
TAGGGCACGTGAAGTG	0.27 kcal/mol
AATTTCACGTGTGACG	0.3 kcal/mol
TTAATCACGTGGTTTA	0.01 kcal/mol
GTATTCACGTGGTAGT	0.15 kcal/mol
TGGTACACGTGAGCGG	0.44 kcal/mol
CTGAACACGTGTGATT	0.24 kcal/mol
GTGATCACGTGTGCGA	0.13 kcal/mol
TGTAGCACGTGATTGG	0.03 kcal/mol
CGTCGCACGTGGGTTG	-0.31 kcal/mol
TTGGCCACGTGGAGAT	0.09 kcal/mol
TCAGTCACGTGAAGTG	0.24 kcal/mol
TAGTGCACGTGGGATT	-0.03 kcal/mol
CGTATCACGTGGCGGT	-0.08 kcal/mol
TGTGTCACGTGATTGT	0.2 kcal/mol
GTTTTCACGTGGGCAG	0.2 kcal/mol
TGTGTCACGTGTATGT	0.04 kcal/mol
TTTAGCACGTGTTTTT	-0.01 kcal/mol
GCGGTCACGTGTCGGT	0.15 kcal/mol

Sequence	relative binding free energy
CGTGGCACGTGCGTCG	-0.1 kcal/mol
TTAAGCACGTGTGCAT	-0.03 kcal/mol
GGATGCACGTGTGGTA	0.01 kcal/mol
TGATACACGTGATTTA	0.17 kcal/mol
AAGGTCACGTGTGTTG	0.17 kcal/mol
TATTTCACGTGTGTTC	0.33 kcal/mol
TTGCTCACGTGGAGAT	0.15 kcal/mol
GTTGGCACGTGTAAGT	0.06 kcal/mol
AGGCACACGTGGGTAG	-0.05 kcal/mol
CTGGCCACGTGGTGGG	-0.13 kcal/mol
TGGGTCACGTGGTTGG	0.2 kcal/mol
AGGGGCACGTGCGGTA	-0.22 kcal/mol
TCATTCACGTGGGTGA	0.04 kcal/mol
ACTATCACGTGTTGGG	0.04 kcal/mol
GTTATCACGTGGGACA	0.1 kcal/mol
TAGCGCACGTGAGGTA	0.22 kcal/mol
CATAGCACGTGTGGGG	-0.19 kcal/mol
AGTATCACGTGCTTGG	0.03 kcal/mol
AGATGCACGTGGGCTT	-0.19 kcal/mol
CAGTACACGTGAGTGG	0.23 kcal/mol
GGAGGCACGTGCGGGG	-0.06 kcal/mol
GGCTGCACGTGATTGG	0.15 kcal/mol
GCGGTCACGTGGAATG	0.23 kcal/mol
TATCTCACGTGGTTGG	0.13 kcal/mol
CGTGGCACGTGTCGTT	-0.04 kcal/mol
TATATCACGTGGATTA	0.04 kcal/mol

Sequence	relative binding free energy
GGCTACACGTGTTATG	0.19 kcal/mol
TCTGACACGTGATTAG	0.26 kcal/mol
ATTGGCACGTGCGTAA	-0.29 kcal/mol
GCTTACACGTGGTGTT	0.09 kcal/mol
TTGGTCACGTGGAAAC	0.34 kcal/mol
ATATTCACGTGGAAGG	0.24 kcal/mol
GGAAGCACGTGAAGTT	0.13 kcal/mol
AGCGTCACGTGGAATT	0.21 kcal/mol
GGTCACACGTGAGAGT	0.29 kcal/mol
CTGGTCACGTGGGGAA	-0.13 kcal/mol
TGTGGCACGTGCAGAG	-0.12 kcal/mol
TGTATCACGTGTTCCT	0.06 kcal/mol
AGGGACACGTGGTGGT	-0.08 kcal/mol
GTGGACACGTGGGTCT	-0.1 kcal/mol
TGGGTCACGTGAGTCG	0.25 kcal/mol
TGGATCACGTGAACGT	0.53 kcal/mol
GCTTACACGTGATTTT	0.41 kcal/mol
AGGCACACGTGTGGTA	-0.05 kcal/mol
TGGTCCACGTGTTTGT	0.04 kcal/mol
GTAATCACGTGCGTGA	0.17 kcal/mol
ACGTGCACGTGATGCG	-0.02 kcal/mol
GTGCGCACGTGATGGA	0.02 kcal/mol
